Recombinant human monoclonal antibodies (heavy:light variable regions). ELISA EC50 on the named antigen, from 10 µg/ml down; IC50 against spike pseudovirus on HT1080-ACE2 cells, 48 h; lower = stronger. Calls: IC50 above 1,000 ng/ml = non-neutralizing; EC50 above 1,000 ng/ml = non-binder.

For assay [1], the target named is SARS-CoV-2 Omicron BA.1 spike pseudovirus. Kind of assay: pseudovirus neutralization IC50; higher = weaker neutralization. As for the experimental part: (§1)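 Single-round luciferase reporter pseudovirus mixed with antibody dilutions and put on HT1080-ACE2 clone 14 cells for 48 h; signal relative to no-antibody wells, four-parameter fit.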
Assay [2] concerns the target SARS-CoV-2 Omicron BA.4/5 spike pseudovirus. The description is as above. As for the experimental part:
as §1

Assay [3] addresses SARS-CoV-2 Wuhan-Hu-1 spike pseudovirus. The assay is described as above. The procedure:
as §1

Assay [4] addresses SARS-CoV-2 Wuhan-Hu-1 spike receptor-binding domain. The assay can be described thus: ELISA binding EC50; higher = weaker binding; ELISA of recombinant human antibody on coated antigen, from 10 µg/ml in fourfold dilutions; four-parameter fit. A general note: An ELISA detects its analyte on a solid surface through an enzyme-linked reagent.

B1: C5131 (protein)
chain 1: QVQLVQSGGGLVQPGGSLRLSCAASEIIVSSNYMSWVRQAPGKGLEWVSTVYSGGSTFYADSVKGRFTISRDKSKNILYLQMANLRVEDMAVYYCVRGDGSDNFYYGMDVWGQGTTVTVS
chain 2: QSVLTQPPSVSGAPGQRVTISCTGSTSNIGAGYDIHWYQQVPGTSPKLLIYANTNRPSGVPDRFSGSKSGTSASLTITGLQAEDEADYYCQSYDSSLRYVIFGGGTTLTVL
Consider B1, for which the “pseudovirus neutralization IC50” value was determined as 0.00191 mg/L in assay [1], 0.0104 mg/L in assay [2] and 0.00152 mg/L in assay [3]. Also, the “ELISA binding EC50” value in assay [4] was determined as 0.00287 mg/L.

B2: C5126 (protein)
chain 1: QVQLVQSGAEVKKPGASVKVSCKASGYTFTNQYMHWVRQAPGQGLEWMGIINPDGGSISYAQKFQGRVTMTRDTSTSTVYMELSSLRSEDTAVYYCARDQAFIVDSGAFDIWGQGTMVTVSS
chain 2: DIQMTQSPSTLSASVGDRVTITCRASQSMSNKLAWYQQKPGKAPKLLIYKASTLESGVPSRFSGSGSGTEFTLTISSLQPDDFATYYCQQYNSYSRTFGQGTKVEIK
Turning to B2, the “pseudovirus neutralization IC50” value in assay [1], in assay [2] and in assay [3] was > 1 mg/L each time. Moreover, in assay [4], the “ELISA binding EC50” value came to 0.00946 mg/L.

B3: C5121 (protein)
chain 1: QVQLVQSGAEVKKTGSSVKVSCRASGGTVSNYPLNWVRQAPGQGLEWMGRIIPILGIPDYAQKFQGRVTISADRSTNTAYMELNSLRSEDTAIYYCARGYCTEGACVGPRWFDPWGQGTLVTVSS
chain 2: QSVLTQPPSVSGAPGQRVTISCTGSNSNIGAGYDVHWYQQLPGTAPQLLIYRNAIRPSGVPDRFSGSNSGTSASLAINGLQAEDEADYYCQSYDSSLSDVVFGTGTKVTV
Regarding B3, the “pseudovirus neutralization IC50” value in assay [1] was 0.0137 mg/L; in assay [2], 0.218 mg/L; in assay [3], 0.0274 mg/L. In assay [4], the “ELISA binding EC50” value was determined as 0.00517 mg/L.

B4: C5135 (protein)
chain 1: QVQLQESGPGLVKPSQTLSLTCTVSGGSISSGDYYWSWLRQSPGKGLEWIGYISYSGTTDYNPSLKSRLTISMATSMNQFSLKLSSVTAADTAVYYCARVQGVDSSGNFFQYYFDNWGRGALVTVSS
chain 2: EIVLTQSPGTLSLSPGERATLSCRASLSISSGFLAWYQQKPGQAPRLLIYGASSRATGIPDRFSGSGSGTVFTLTISRLEPEDFAVYYCQQYSGSPLTFGGGTKVEIK
Regarding B4, the “pseudovirus neutralization IC50” value is 0.39 mg/L in assay [1], 0.524 mg/L in assay [2] and 0.401 mg/L in assay [3]. Further, the “ELISA binding EC50” value in assay [4] is 0.00299 mg/L.

B5: C5136 (protein)
chain 1: QVQLQESGPGLVRPSQTLSLTCTVSGGSISNADYFWSWIRQPPGKGLEWIGYISYSGNTDYKPSLKSRLSMSVETSKNRFSLHLSSVTAADTAVYFCARVQGVDSSGNFFQYYFDHWGQGTLVTVSS
chain 2: EIVLTQSPGTLSLSPGERATLSCRASLSISSDFLAWYQQKPGQAPRLLIYGASNRATGIPDRFSGRGSGTDFTLTISRLEPEDFAVYYCQQYSFSPLTFGGGTKVEIK
On to B5, for which the “pseudovirus neutralization IC50” value worked out at 0.0256 mg/L in assay [1], 0.0872 mg/L in assay [2] and 0.0535 mg/L in assay [3]. In assay [4], the “ELISA binding EC50” value came out at 0.00371 mg/L.

B6: C5123 (protein)
chain 1: QVQLVQSGAEVKKPGASVKVSCKASGYTFTSYYIHWVRQAPGQGFEWMGIINPSGGSTSYAQKFQGRVSLTGDTSTSTVYMELSSLRSEDTAEYYCARGGIAPDLRREFDHWGQGTLVTVSS
chain 2: DIQMTQSPSTLSASVGDRVTITCRASQSISSWLAWYQQKPGKAPKLLIYKASNLESGVPSRFSGSGSGTEFTLTITSLQPDDFATYYCQQYKSYTFGQGTKLEIK
Take B6: the “pseudovirus neutralization IC50” value in assay [1], in assay [2] and in assay [3] was > 1 mg/L throughout. In addition, the “ELISA binding EC50” value in assay [4] was 0.0105 mg/L.

B7: C5132 (protein)
chain 1: QVQLQQWGAGLLKPSETLSLTCAVYGGSFSSYSWSWIRQPPGKGLEWIGEINDSGITNYNPSLKSRVTMSVDTSKNQLSLKLSSMTAADTAVYFCARDIVVLLPAAGGRRYYSYIDVWGTGTTVTVSS
chain 2: DIQMTQSPSTLSASIGDRVTITCRASQSITSYLNWYQQKPGRAPKVLIYATSSLQSGVPSRFSGSGSGADFTLTISSLQPEDFATYYCQQSYTTPYTFGQGTKLEI
On to B7, for which the “pseudovirus neutralization IC50” value in assay [1], in assay [2] and in assay [3] was > 1 mg/L throughout. The “ELISA binding EC50” value in assay [4] was determined as 0.00436 mg/L.

B8: C5133 (protein)
chain 1: QVQLQQWGAGLLKPSETLSLTCAVYGGSFSSYSWSWIRQPPGKGLEWIGEINDSGITNYNPSLKSRVTMSVDTSKNQLSLKLSSMTAADTAVYFCARDIVVLLPAAGGRRYYSYIDVWGTGTTVTVSS
chain 2: DIQMTQSPSSLPVSVGDRVTITCQASQDIDKNLNWYQQKPGKAPKLLIYDASNLETGVPSRFSRSGSGTDFSFTISSLQPEDIATYYCQQYDSLPITFGQGTRLEIK
On to B8, for which the “pseudovirus neutralization IC50” value in assay [1], in assay [2] and in assay [3] was > 1 mg/L in each case. Besides, the “ELISA binding EC50” value in assay [4] amounted to 0.549 mg/L.

B9: C5134 (protein)
chain 1: QVQLVESGGGVVRPGRSLRLSCAASGFTFSDYVIHWVRQAPGKGLEWVAAISSDGKIKDYGDSVKGRFIISRDNSKNTLYLQMNSLRHEDTAVYYCARDSRQIVDYLDYWGQGTLVTVSS
chain 2: DIQMTQSPSSLSASVGDRVTITCRASQTISNYLNWYQQTPGKAPKLLVYAATSLQTGVPLRFSGSGSGTSFTLTISSLQPEDFATYYCQQTYTTPQTFGQGTKVEIK
In the case of B9, the “pseudovirus neutralization IC50” value in assay [1], in assay [2] and in assay [3] was > 1 mg/L throughout. Besides, in assay [4], the “ELISA binding EC50” value was 0.0054 mg/L.

B10: C5122 (protein)
chain 1: EVQLVESGGDLVQPGGSLRLSCAVSAFTVSSNYMIWVRQAPGRGLEWVSVIYPGGSTFYADSVKGRFIISRHNSENTLYLQMNDLRLEDTAVYYCARGPYPRSDLWGRGTLVTVSS
chain 2: DIQMTQSPSFLSASVGDRVTITCQASQDSNKYVNWYQHKPGEAPKLLIYDASHLETGVPSRFSGTGSGTHFTFTISGLQPEDIATYYCQQYDNIPITFGGGTKVEI
On to B10, for which the “pseudovirus neutralization IC50” value in assay [1] turned out to be 0.00138 mg/L; in assay [2] it was 0.00284 mg/L; in assay [3] it was 0.00433 mg/L. Moreover, in assay [4], the “ELISA binding EC50” value is 0.0031 mg/L.

B11: C5127 (protein)
chain 1: QVQLVQSGDEMKKPGASVRVSCKASGYTFASYGFTWVRQAPGQGLEWMGWISPSNGYTNYAQKLQGRVTMTTDSSTNTAYMELRSLRSDDTAVYYCARLDCISSSCYGYHYYGMDVWGQGTTVTVSS
chain 2: QSVLTQPPSASGTPGQRVTISCSGSSSSIASSTVNWYQQLPGTAPKLLIYSNSQRPSGVPDRFSGSKSGTSASLAISGLQSEDEADYFCAAWDDSLNGPWVFGGGTKLTVL
As to B11, the results for the “pseudovirus neutralization IC50” value in assay [1], in assay [2] and in assay [3] were > 1 mg/L, > 1 mg/L and 0.683 mg/L, respectively. Besides, the “ELISA binding EC50” value in assay [4] was found to be 0.0083 mg/L.

B12: C5125 (protein)
chain 1: QVQLVESGGGVVQPGRSLRLSCTASGFTFSNYGMHWVRQVPGKGLEWVAAISYDGDDKYYVDSVKGRFNISRDNSKNTLYLLMNSLRVQDTAVYYCVKGGWYGDLLRVDYWGQGTLVIVSS
chain 2: DIQMTQSPSSLSASVGDRVTITCQASQDISHYLNWYQQKPGKAPKLLIYDASSLETGVPSRFSGSGSGTEFTFTISSLQPEDIATYYCQQYGVPPITFGQGTRLEIK
On to B12, for which the “pseudovirus neutralization IC50” value in assay [1], in assay [2] and in assay [3] was > 1 mg/L in each case. Also, the “ELISA binding EC50” value in assay [4] stood at 0.00432 mg/L.

B13: C5120 (protein)
chain 1: EVQLLESGGGLVQPGGSLRLSCVASGVPFRSYAMSWVRQAPGKGLEWVSTISGSDGTTYHADSVKGRFTISKDNSKNTVYLQMNSLRAEDTAKYFCAKDLAGGAGGFGFDIWGQGTMVTVSS
chain 2: SYELTQPPSVSVAPGKTARITCGENNIGSKSVYWYQQKPGQAPVLVIYYDSDRPSGIPERLSGSNSGNTATLTISRVEAGDEADYYCQVWDSSSDTYVFGTGTKVTVL
For the molecule B13, the entries for the “pseudovirus neutralization IC50” value in assay [1], in assay [2] and in assay [3] were 0.711 mg/L, > 1 mg/L and 0.363 mg/L, respectively. Moreover, in assay [4], the “ELISA binding EC50” value came to 0.00314 mg/L.

B14: C5124 (protein)
chain 1: QVQLVESGGGVVQPGRSLSLSCAASGFTFSSYDMHWVRQTPGKGLEWVAAISSDGNIKNYADSVKGRFTISRDNSKSTLYLQMNSLRAEDTAVYYCAKDSQSMIVDLFDYWGQGTLVTVSS
chain 2: DIQMTQSPSSLSASIGDRVTITCRASQSISGYLNWYQQKSGKAPKLLIYATSSLHSGVPPRFSGSASGTDFTLTISSLQPEDFATYYCQQSYTTPLTFGPGTKVD
As to B14, the “pseudovirus neutralization IC50” value in assay [1], in assay [2] and in assay [3] was > 1 mg/L throughout. In addition, in assay [4], the “ELISA binding EC50” value stood at 0.00395 mg/L.

B15: C5035 (protein)
chain 1: QVQLVQSGAEVKKPGSSVKVSCKASGGTFSTYGISWVRQAPGQGFEWMGGIIPTLDTAIYAQKFQGKVTITADESTSTAYMELNSLRSEDTAVYYCARHGPTYSTVLTGYFAFDYWGQGILVTVSS
chain 2: QTVVTQEPSLTVSPGGTVTLTCASSTGPVTSGYYPNWFQKKPGQAPRALIYSTSNKHSWTPARFSGSLLGGKAALTLSGVQPEDEAEYYCLLYYGSSQEWVFGGGTKLTVL
Consider B15, for which the “pseudovirus neutralization IC50” value was > 1 mg/L in assay [1], > 1 mg/L in assay [2] and 0.00191 mg/L in assay [3]. For the same molecule, in assay [4], the “ELISA binding EC50” value was 0.00984 mg/L.
